# From PubChem BioAssay (NCATS)
# This list was built around the results that the source calls inconclusive (neither active nor inactive); the mix of calls is not that of the screen. For some assays here: Where the call is inconclusive, the potency comes from a doubtful curve fit. Activity calls are given as the source filed them. Unless noted, calls follow the shape of the dose curve; as a rule, active = well fitted curve in the direction sought with a large enough effect; inconclusive = small, poorly fitted or top-dose-only effect, or another doubt; inactive = no such curve, though single readings can be large; an effect the other way counts as inactive or inconclusive.
# Experiments:
# [1] = biological target: 3',5'-cyclic-AMP phosphodiesterase 4B (Homo sapiens) (UniProt Q07343); assay: qHTS Assay for Inhibitors of PDE-IV (AID 607; active = well fitted activation curve with a large enough effect in the main read-out, with a control signal flat, not every such curve was filed as active; inconclusive = small, poorly fitted or top-dose-only effect, or effect the other way, or a change in a side signal; also: potency is read from the fitted curve at half-maximal effect); conditions: HEK293 ACTOne CNG channel cells, membrane potential fluorescence; activation (PDE inhibition): at 22.9 µM (top of the series)
# Summary of the method: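 Cell-based read-out of cAMP via a modified cyclic nucleotide-gated channel and membrane potential dye (535/590 nm) in HEK293 cells expressing PDE4 endogenously. Compounds tested up to 22.9 uM final; 100 uM RO 20-1724 reference.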
# [2] = biological target: Cytochrome P450 3A4 (Homo sapiens) (UniProt P08684); assay: qHTS Assay for Inhibitors and Substrates of Cytochrome P450 3A4 (AID 884); conditions: recombinant CYP3A4, Luciferin-PPXE luminescence; activity change, negative = inhibition: at 57.1 µM (top of the series); also: potency is read from the fitted curve at half-maximal effect; nearly all actives have a fitted effect of over 50% in size
# Summary of the method: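 20 nM human CYP3A4 with 25 uM Luciferin-PPXE (at KM) in 200 mM KPO4, preincubated 10 min with compound; NADPH regeneration started a 60 min RT reaction. Luciferin detected by luminescence, normalized to 57 uM ketoconazole as full inhibition.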
# [3] = qHTS Assay for Identification of Small Molecule Agonists for Hypoxia Response Element Signaling Pathway (AID 914; active = well fitted activation curve with a large enough effect in the signal ratio, with a control signal flat, not every such curve was filed as active; inconclusive = small, poorly fitted or top-dose-only effect, or effect the other way, or a change in a side signal; the % refers to the signal ratio; also: top concentration of the series differs between compounds; % of control where 0% means no effect); conditions: ME-180 HRE-bla reporter, beta-lactamase ratio, CoCl2, 17 h; activation: stronger effect = higher value
# Summary of the method: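 Cells were plated overnight, pin-dosed with compound in a titration series, co-stimulated with EC50 CoCl2 and incubated 17 hours at 37 degrees Celsius. CCF4 substrate was then loaded, and AC50 values came from the 460nm/530nm ratio.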
# [4] = qHTS Assay for Lipid Storage Modulators (AID 1519; calls by dose curve; also: % is scaled to controls: 0 for no effect and ±100 for the full control effect); conditions: Drosophila S3 cells, BODIPY lipid droplet/cell ratio, laser cytometry, cells loaded with oleic acid; activity change, negative = inhibition: at 57.5 µM (top of the series) unless noted
# Summary of the method: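 Cells seeded at 5,000 per well were treated with compounds over a concentration series and loaded with oleic acid (400 uM, as added). Lipid droplet fluorescence (488 nm excitation, 500-530 nm channel) was read by laser-scanning cytometry and normalized to 20 uM Triacsin C.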
# [5] = biological target: Dual specificity protein kinase CLK4 (Homo sapiens) (UniProt Q9HAZ1); assay: qHTS Assay for Inhibitors of CDC-like Kinase 4 (Kinase-Glo Assay) (AID 1770); also: nearly all actives have a fitted effect of over 65% in size; also: potency is read from the fitted curve at half-maximal effect
# Summary of the method: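 Clk4 25 nM, RS peptide 100 uM, ATP 1 uM, pH 7.5 Tris, 10 mM MgCl2, 2.5 mM DTT; 4.5 h RT; ATP depletion read by Kinase-Glo luminescence.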
# [6] = biological target: Dual specificity protein kinase CLK4 (Homo sapiens) (UniProt Q9HAZ1); assay: qHTS Assay for Inhibitors of CDC-like Kinase 4 (ADP-Glo Assay) (AID 1771); also: potency is read from the fitted curve at half-maximal effect; nearly all actives have a fitted effect of over 70% in size
# Summary of the method: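 25 nM Clk4 with 100 uM RS repeat peptide and 1 uM ATP (final) in buffer with 2 mM MgCl2, 0.5 mM EGTA, 2.5 mM DTT, 0.01% Triton X-100; 1 h at room temperature; ADP-Glo luminescence for ADP formed.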
# [7] = biological target: Ubiquitin carboxyl-terminal hydrolase 1 (Homo sapiens) (UniProt O94782); assay: Inhibitors of USP1/UAF1: Pilot qHTS (AID 504865); also: potency is read from the fitted curve at half-maximal effect;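 also: rhodamine fluorescence freed from ubiquitin-rhodamine substrate followed over time; nearly all actives have a fitted effect of over 35% in size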
# Summary of the method: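 Enzyme-free wells gave the negative control, while test wells held 1nM USP1/UAF1 preincubated with compound for 15 min at room temperature. Ub-Rho at 150nM final started the reaction, and fluorescence at 480/540 nm was recorded kinetically.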
# [8] = NFAT Signaling Pathway (AID 444; active = well fitted curve in either direction with a large enough effect, not every such curve was filed as active; inconclusive = small, poorly fitted or top-dose-only effect, or another doubt;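 also: carbachol stimulus at about its EC50 of 1 µM final; % is scaled to controls: 0 for no effect and ±100 for the full control effect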); conditions: Jurkat NFAT-bla M1, carbachol, beta-lactamase ratio, 5 h; at 7.69 µM (top of the series) unless noted
# Summary of the method: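 Jurkat cells carrying an NFAT-driven β-lactamase reporter and co-transfected muscarinic M1 receptor were treated with compound plus carbachol (1 uM final, an EC50 level) for 5 h at 37 °C. CCF4 loading followed for 1 h at RT; 460/530 nm ratio gave %activity.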
# [9] = Stat Signaling Pathway (AID 446; active = well fitted curve in either direction with a large enough effect, not every such curve was filed as active; inconclusive = small, poorly fitted or top-dose-only effect, or another doubt;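 also: ME-180 cervical cancer cells given 40 pM IL-6 alongside compound; SIE-controlled beta-lactamase reporter measured as 460/530 nm FRET emission ratio; top concentration of the series differs between compounds; % is scaled to controls: 0 for no effect and ±100 for the full control effect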); conditions: ME-180 SIE beta-lactamase reporter, IL-6 stimulated, 5 h; at 7.69 µM (top of the series) unless noted
# Summary of the method: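 Reporter line: ME-180 cervical carcinoma, SIE-beta-lactamase. Treatment: compound with 40 pM IL-6, 5 hrs, 37 C, in low-serum OPTI-MEM with 10 mM HEPES pH 7.3. Detection: 460/530 nm fluorescence.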
# [10] = biological target: Dual specificity protein kinase CLK4 (Homo sapiens) (UniProt Q9HAZ1); assay: qHTS Assay for Inhibitors of CDC-like Kinase 4 (ADP-FP Assay) (AID 1795);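 also: recombinant human CLK4 phosphorylating RS repeat peptide at 1 µM ATP; % is scaled to controls: 0 for no effect and ±100 for the full control effect; nearly all actives have a fitted effect of over 60% in size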
# Summary of the method: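 Kinase activity was followed as ADP output, converted from fluorescence polarization with a calibration curve. Reactions ran one hour at low ATP (1 uM) with RS peptide substrate.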
# [11] = AP1 Signaling Pathway (AID 357; active = well fitted curve in either direction with a large enough effect, not every such curve was filed as active; inconclusive = small, poorly fitted or top-dose-only effect, or another doubt;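 also: ME-180 reporter cells stimulated with EGF at its EC50 level; top concentration of the series differs between compounds; % is scaled to controls: 0 for no effect and ±100 for the full control effect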); conditions: ME-180 (cervical carcinoma) AP-1-bla reporter, EGF-induced, beta-lactamase ratio, 5 h; at 7.69 µM (top of the series) unless noted
# Summary of the method: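 AP-1-bla ME-180 cells, Opti-MEM + 0.5% dialyzed FBS, plated overnight 37 °C. Cpd titration + EC50 EGF, 5 h 37 °C. CCF4 2.5 h RT; ex 405, em 460/530 ratio → %activity, AC50.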
# [12] = biological target: Glucocorticoid receptor (Homo sapiens) (UniProt P04150); assay: GR-EFC Redistribution (AID 451; calls by dose curve; also: potency is read from the fitted curve at half-maximal effect); conditions: CHO-K1 GR-EFC translocation, beta-gal luminescence, 2 h
# Summary of the method: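 CHO-K1 cells stably expressing nuclear-localized β-gal enzyme acceptor and GR fused C-terminally to the enzyme donor fragment; ligand-driven nuclear translocation restores β-gal by complementation. Compounds titrated up to 46 uM final, 2 h at 37 °C; luminescence read.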
# Tags tell the direction and shape of the fitted curve.
# Sequence of UniProt Q07343 (Q07343 whole entry, looked up): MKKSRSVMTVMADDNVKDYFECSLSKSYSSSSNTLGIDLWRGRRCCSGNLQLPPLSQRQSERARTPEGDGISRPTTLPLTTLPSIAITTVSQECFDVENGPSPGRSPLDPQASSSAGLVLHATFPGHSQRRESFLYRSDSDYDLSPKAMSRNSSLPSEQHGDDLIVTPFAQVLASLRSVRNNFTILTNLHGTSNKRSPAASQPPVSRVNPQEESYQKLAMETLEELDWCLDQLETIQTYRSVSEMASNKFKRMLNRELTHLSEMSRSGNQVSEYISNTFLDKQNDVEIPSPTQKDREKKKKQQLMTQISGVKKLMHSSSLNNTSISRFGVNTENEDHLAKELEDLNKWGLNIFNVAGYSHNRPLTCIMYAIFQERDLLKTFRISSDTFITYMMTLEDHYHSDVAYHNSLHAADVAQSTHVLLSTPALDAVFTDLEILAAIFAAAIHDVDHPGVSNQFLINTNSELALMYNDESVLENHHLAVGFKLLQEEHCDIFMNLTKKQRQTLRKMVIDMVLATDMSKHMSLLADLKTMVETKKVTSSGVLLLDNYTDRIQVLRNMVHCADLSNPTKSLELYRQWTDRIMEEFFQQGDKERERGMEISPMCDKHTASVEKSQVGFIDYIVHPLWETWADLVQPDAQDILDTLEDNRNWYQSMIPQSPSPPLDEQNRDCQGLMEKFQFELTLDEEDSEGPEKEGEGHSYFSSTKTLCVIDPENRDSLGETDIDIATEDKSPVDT
# Sequence of UniProt O94782 (O94782 whole entry, looked up): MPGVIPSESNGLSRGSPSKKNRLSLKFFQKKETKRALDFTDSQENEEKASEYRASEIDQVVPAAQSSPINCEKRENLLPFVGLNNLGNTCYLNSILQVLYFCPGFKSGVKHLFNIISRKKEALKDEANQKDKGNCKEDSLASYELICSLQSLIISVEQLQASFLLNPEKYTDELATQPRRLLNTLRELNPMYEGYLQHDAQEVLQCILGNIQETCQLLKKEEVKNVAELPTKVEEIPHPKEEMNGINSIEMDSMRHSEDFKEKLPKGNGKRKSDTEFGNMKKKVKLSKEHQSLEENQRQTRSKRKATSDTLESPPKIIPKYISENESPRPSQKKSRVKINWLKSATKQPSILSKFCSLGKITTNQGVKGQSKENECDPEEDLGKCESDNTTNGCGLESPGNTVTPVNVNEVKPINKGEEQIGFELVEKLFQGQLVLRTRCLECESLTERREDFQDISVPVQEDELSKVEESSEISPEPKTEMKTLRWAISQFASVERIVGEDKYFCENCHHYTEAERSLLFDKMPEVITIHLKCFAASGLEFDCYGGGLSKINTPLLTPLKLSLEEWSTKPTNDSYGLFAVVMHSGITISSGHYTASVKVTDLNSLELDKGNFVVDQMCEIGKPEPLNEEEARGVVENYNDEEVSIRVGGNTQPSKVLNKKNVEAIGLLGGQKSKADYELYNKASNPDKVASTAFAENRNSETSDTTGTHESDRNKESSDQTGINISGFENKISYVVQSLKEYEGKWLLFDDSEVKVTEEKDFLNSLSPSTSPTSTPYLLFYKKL
# Sequence of UniProt Q9HAZ1 (Q9HAZ1 whole entry, looked up): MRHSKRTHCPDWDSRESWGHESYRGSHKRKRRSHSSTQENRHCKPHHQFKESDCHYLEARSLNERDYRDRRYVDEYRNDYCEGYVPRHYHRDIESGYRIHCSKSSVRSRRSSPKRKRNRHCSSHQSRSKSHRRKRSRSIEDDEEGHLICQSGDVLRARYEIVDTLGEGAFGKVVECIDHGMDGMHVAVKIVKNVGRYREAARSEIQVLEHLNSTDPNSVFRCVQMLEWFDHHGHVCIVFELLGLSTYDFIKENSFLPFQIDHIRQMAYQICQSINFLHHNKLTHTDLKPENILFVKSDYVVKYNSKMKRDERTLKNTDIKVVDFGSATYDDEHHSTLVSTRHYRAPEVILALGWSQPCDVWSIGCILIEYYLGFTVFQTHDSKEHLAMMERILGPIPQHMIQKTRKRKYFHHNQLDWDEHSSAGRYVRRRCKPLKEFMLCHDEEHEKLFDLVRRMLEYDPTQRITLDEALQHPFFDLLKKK
# Sequence of UniProt P08684 (P08684 whole entry, looked up): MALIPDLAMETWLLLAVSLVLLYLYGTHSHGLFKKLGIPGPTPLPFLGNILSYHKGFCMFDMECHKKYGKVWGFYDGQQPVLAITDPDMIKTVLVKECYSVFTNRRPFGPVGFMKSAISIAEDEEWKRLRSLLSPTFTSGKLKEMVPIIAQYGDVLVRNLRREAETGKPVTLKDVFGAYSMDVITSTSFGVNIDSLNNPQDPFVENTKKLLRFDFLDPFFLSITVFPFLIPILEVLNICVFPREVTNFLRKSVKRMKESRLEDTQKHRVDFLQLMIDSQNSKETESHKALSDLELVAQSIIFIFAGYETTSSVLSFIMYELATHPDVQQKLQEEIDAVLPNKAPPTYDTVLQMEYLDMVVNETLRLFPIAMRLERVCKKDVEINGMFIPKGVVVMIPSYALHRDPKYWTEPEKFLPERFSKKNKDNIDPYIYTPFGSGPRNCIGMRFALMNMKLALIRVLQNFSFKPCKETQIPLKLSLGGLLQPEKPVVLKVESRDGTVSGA
# Sequence of UniProt P04150 (P04150 whole entry, looked up, the tested form may be a part): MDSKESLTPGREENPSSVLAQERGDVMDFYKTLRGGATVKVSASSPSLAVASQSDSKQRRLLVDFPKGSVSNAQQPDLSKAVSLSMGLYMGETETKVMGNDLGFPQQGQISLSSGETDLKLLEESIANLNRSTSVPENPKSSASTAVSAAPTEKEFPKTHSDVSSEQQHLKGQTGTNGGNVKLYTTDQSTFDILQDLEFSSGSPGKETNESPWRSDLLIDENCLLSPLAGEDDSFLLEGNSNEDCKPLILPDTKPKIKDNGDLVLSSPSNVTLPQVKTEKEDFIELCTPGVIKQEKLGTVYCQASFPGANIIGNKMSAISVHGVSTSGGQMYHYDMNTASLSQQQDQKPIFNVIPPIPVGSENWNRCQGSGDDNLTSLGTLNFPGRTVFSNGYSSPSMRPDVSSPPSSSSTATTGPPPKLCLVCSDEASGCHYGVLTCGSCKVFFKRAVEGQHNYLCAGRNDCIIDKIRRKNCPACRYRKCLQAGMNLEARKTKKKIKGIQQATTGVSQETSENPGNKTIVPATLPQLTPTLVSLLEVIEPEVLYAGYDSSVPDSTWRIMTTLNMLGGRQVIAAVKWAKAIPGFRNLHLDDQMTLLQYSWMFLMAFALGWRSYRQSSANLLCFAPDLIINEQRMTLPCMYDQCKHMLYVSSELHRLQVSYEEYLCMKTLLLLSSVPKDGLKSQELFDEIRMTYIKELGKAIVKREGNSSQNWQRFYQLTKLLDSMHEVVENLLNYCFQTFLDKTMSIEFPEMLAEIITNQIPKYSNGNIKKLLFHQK
structure (smiles),measurement,setting,value
Fc1ccc(Nc2ccnc(-c3ccc4c(c3)OCO4)n2)cc1,Potency,[1],"inconclusive: 7.94 µM [activator, partial curve, poor fit]"
same,Potency,[2],active: 2 µM
same,activation,[3],inconclusive: 30.1%
same,"activity change, negative = inhibition",[4],inconclusive: 9.13%
same,Potency,[5],"inconclusive: 25.1 µM [falling, partial curve]"
same,Potency,[6],active: 31.6 µM
same,Potency,[7],"inconclusive: 28.2 µM [inhibitor, partial curve, poor fit]"
Cc1noc(C)c1-c1nc(NCc2ccccc2)c2ccccc2n1,"activity change, negative = inhibition",[8],inconclusive: -30.5% [inhibitor]
same,Potency,[1],"inconclusive: 10 µM [activator, partial curve]"
same,"activity change, negative = inhibition",[4],inconclusive: 7.2%
same,Potency,[5],inactive
same,Potency,[6],"inconclusive: 11.2 µM [falling, partial curve]"
same,Potency,[7],active: 6.31 µM
c1ccc(CNc2ccnc(-c3cccnc3)n2)cc1,"activity, negative = inhibition",[9],inconclusive: 3.61% [inhibitor]
same,Potency,[1],"inconclusive: 12.6 µM [activator, partial curve]"
same,activation,[3],inconclusive: 30.9%
same,"activity change, negative = inhibition",[4],inconclusive: 8.95%
same,Potency,[5],"inconclusive: 31.6 µM [falling, partial curve]"
same,Potency,[6],"inconclusive: 31.6 µM [falling, partial curve]"
Cc1noc(C)c1-c1nc(N(C)C)c2ccccc2n1,"activity change, negative = inhibition",[4],inconclusive: 2.66%
same,Potency,[5],"inconclusive: 15.8 µM [falling, partial curve]"
same,Potency,[6],"inconclusive: 28.2 µM [falling, partial curve]"
CS(=O)(=O)Nc1cccc(-c2cncnc2Nc2ccc(F)cc2)c1,Potency,[4],inactive
same,Potency,[5],"inconclusive: 28.2 µM [falling, partial curve]"
same,Potency,[6],active: 31.6 µM
same,Potency,[10],inactive
Cc1noc(C)c1-c1nccc(Nc2ccc(F)cc2)n1,"activity change, negative = inhibition",[11],inactive: -22.4%
same,activation,[3],inactive: 21.5%
same,"activity change, negative = inhibition",[4],inconclusive: 5.52%
same,Potency,[5],"inconclusive: 14.1 µM [falling, partial curve]"
same,Potency,[6],"inconclusive: 22.4 µM [falling, single point]"
same,Potency,[7],"inconclusive: 28.2 µM [inhibitor, partial curve, poor fit]"
COc1ccc(CNc2ncncc2-c2cccnc2)c(OC)c1,Potency,[12],inconclusive: > 46 µM [single point]
same,Potency,[4],inactive
same,Potency,[5],"inconclusive: 28.2 µM [falling, partial curve]"
same,Potency,[6],"inconclusive: 35.5 µM [falling, single point]"
same,Potency,[7],inactive
COc1ccc(CNc2cc(-c3ccoc3)ncn2)c(OC)c1,"activity change, negative = inhibition",[8],inactive: 0.143%
same,Potency,[4],inactive
same,Potency,[5],"inconclusive: 35.5 µM [falling, single point]"
same,Potency,[6],"inconclusive: 35.5 µM [falling, single point]"
Cc1cnc(CNc2ncncc2-c2ccccc2C)cn1,"activity change, negative = inhibition",[8],inactive: -3.77%
same,"activity change, negative = inhibition",[4],inconclusive: 8.28%
same,Potency,[5],inactive
same,Potency,[6],"inconclusive: 39.8 µM [falling, single point]"
Cc1noc(C)c1-c1cc(Nc2ccccc2)ncn1,Potency,[1],"inconclusive: 12.6 µM [activator, single point]"
same,Potency,[4],inactive
same,Potency,[5],"inconclusive: 28.2 µM [falling, partial curve]"
same,Potency,[6],"inconclusive: 28.2 µM [falling, partial curve]"
COc1ccc(CNc2ccnc(-c3cccc(NS(C)(=O)=O)c3)n2)c(OC)c1,"activity change, negative = inhibition",[8],inactive: 8.15%
same,Potency,[1],active: 2 µM
same,"activity change, negative = inhibition",[4],inconclusive: 7.87%
same,Potency,[5],"inconclusive: 35.5 µM [falling, single point]"
same,Potency,[6],"inconclusive: 39.8 µM [falling, single point]"
same,Potency,[7],inactive
CN(C)c1nc(-c2ccccc2C(F)(F)F)nc2ccccc12,"activity change, negative = inhibition",[11],inconclusive: 47.2% [activator]
same,"activity change, negative = inhibition",[4],inconclusive: 6.84%
same,Potency,[5],"inconclusive: 28.2 µM [falling, single point]"
same,Potency,[6],"inconclusive: 31.6 µM [falling, single point]"
COCCNc1nc(-c2c(C)noc2C)nc2ccccc12,"activity change, negative = inhibition",[4],inconclusive: 9.54%
same,Potency,[5],"inconclusive: 28.2 µM [falling, partial curve]"
same,Potency,[6],"inconclusive: 28.2 µM [falling, partial curve]"
same,Potency,[7],inactive
CN(C)C(=O)c1ccc(-c2nccc(-n3ccnc3)n2)cc1,Potency,[2],"inconclusive: 3.16 µM [inhibitor, partial curve]"
same,"activity change, negative = inhibition",[4],inconclusive: 6.29%
same,Potency,[5],"inconclusive: 28.2 µM [falling, partial curve]"
same,Potency,[6],"inconclusive: 28.2 µM [falling, partial curve]"
same,Potency,[10],inactive
